About 2,200 (0.71%) of roughly 310,000 compounds showed an effect of 50% or more. Effects have a minus sign here. The list shows a part of the results.
Target: human ether-à-go-go-related gene (hERG) potassium channel (human, UniProt Q12809)
Assay: primary screen, population patch clamp on CHO cells stably expressing hERG

human ether-à-go-go-related gene (hERG) potassium channel, sequence (Q12809 whole entry, looked up): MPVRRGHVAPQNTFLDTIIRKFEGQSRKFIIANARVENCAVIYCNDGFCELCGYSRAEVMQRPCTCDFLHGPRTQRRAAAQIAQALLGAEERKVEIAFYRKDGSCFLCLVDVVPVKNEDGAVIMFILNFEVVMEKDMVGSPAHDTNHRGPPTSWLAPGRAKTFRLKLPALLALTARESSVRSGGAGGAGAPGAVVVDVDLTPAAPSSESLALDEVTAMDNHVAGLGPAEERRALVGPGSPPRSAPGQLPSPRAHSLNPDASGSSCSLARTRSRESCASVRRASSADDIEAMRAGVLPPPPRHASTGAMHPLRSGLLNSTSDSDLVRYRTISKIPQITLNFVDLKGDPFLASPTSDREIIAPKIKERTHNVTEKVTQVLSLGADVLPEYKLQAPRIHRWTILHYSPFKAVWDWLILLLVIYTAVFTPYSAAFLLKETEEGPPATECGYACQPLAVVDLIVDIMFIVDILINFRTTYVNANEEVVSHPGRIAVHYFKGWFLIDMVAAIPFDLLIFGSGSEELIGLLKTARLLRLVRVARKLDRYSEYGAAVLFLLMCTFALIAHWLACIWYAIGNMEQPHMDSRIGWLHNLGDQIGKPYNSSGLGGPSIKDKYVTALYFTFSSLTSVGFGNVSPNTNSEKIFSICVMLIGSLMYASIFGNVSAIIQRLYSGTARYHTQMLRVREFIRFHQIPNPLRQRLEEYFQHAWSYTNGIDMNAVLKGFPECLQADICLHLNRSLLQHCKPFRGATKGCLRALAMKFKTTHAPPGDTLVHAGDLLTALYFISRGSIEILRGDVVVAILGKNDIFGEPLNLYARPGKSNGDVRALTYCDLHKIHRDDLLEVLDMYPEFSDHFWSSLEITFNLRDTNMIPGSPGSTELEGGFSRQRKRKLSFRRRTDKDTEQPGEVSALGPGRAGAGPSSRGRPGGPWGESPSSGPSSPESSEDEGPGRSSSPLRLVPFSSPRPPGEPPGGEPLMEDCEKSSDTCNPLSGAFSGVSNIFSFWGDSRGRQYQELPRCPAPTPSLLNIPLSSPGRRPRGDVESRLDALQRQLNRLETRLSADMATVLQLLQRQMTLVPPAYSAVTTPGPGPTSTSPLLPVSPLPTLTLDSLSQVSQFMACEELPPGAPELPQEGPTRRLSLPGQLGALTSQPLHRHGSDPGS

Structure (SMILES)	hERG current change (%, negative = inhibition) at 1uM [%]
CCCc1cc(=O)oc2cc(OC(C)C(=O)NC3CC(C)(C)NC(C)(C)C3)ccc12 (stereo not drawn)	-3.14
COc1ccc(Br)cc1C(=O)Nc1ccc(O)cc1	9.94
COc1ccccc1-c1c(C)nn2c(N3CCC(C(N)=O)CC3)cc(C)nc12	12.6
Cc1nnc(NC(=O)CSc2nnc(CCc3nc4ccccc4[nH]3)n2C)s1	4.25
Cl.c1ccc2c3c([nH]c2c1)CCNC3	8.87
Cl.O=[N+]([O-])c1ccccc1OCC(O)CNC1CCCC1 (stereo not drawn)	13
Cc1ccc2c(C)c(C(=O)NCc3ccc(S(N)(=O)=O)cc3)oc2c1C	9.45
O=C(c1ccccc1)c1sc(N2CCCCCC2)nc1-c1ccccc1	8.54
CN(C)c1ccc(/C=N/N2CCN(c3ccccn3)CC2)cc1	11
CC(C)(C)c1ccc(/C([O-])=C(/C(=S)NCc2ccco2)[n+]2ccccc2)cc1	8.38
Cc1ccc(C2=NS(=O)(=O)N(C)C(C(=O)Nc3cc(C)n(CC(=O)N4CCC(C)CC4)n3)=C2)cc1	14
O=C(C[n+]1cc(-c2ccc(Cl)c(Cl)c2)n2c1CCC2)N1c2ccccc2Sc2ccccc21.[Cl-]	5.98
O=C1[C@H]2[C@@H](c3ccc(Cl)cc3)N3C(=O)N(c4cccc(Cl)c4)C(=O)[C@@]3(Cc3ccccc3)[C@H]2C(=O)N1C1CCCCC1	6.74
c1ccc(C2=NNC(c3ccco3)=Nc3ccccc32)cc1	9.69
O=C(CSc1nnc(-c2ccncc2)o1)NCc1ccccc1	0.359
Cn1c(N)c(C(=O)COC(=O)C(Cc2ccccc2)NC(=O)c2ccccc2)c(=O)n(C)c1=O (stereo not drawn)	-4.58
COc1ccc(CNC(=O)COC(=O)c2[nH]c(C)c(C(C)=O)c2C)cc1OC	2.77
CC1CCCN(C(=O)CCc2nnc(-c3ccc4c(c3)OCO4)o2)C1 (stereo not drawn)	6.5
N#CCCN(Cc1cccnc1)C(=O)Nc1ccc(Cl)c(Cl)c1	-0.824
O=C(CN(C(=O)CCC(=O)Nc1nccs1)c1cccc(F)c1)NCCc1ccccc1	-15.9
COc1ccc(S(=O)(=O)Cc2ccc(C(=O)NCc3ccc(C)cc3)o2)cc1	12.9
CCOc1ccc(S(=O)(=O)n2nnc3ccccc32)cc1C	7.15
Nc1cc(=O)[nH]c(SCC(=O)Nc2ccc(Cl)c(Cl)c2)n1	1.55

Structure (SMILES)	hERG current change (%, negative = inhibition) at 1uM [%]
COc1cc(C)c(C(C)C)cc1S(=O)(=O)n1cnc(C)c1	6.84
COC(=O)c1cc2oc3ccccc3c2n1Cc1ccccn1	9.25
COC(=O)C1CCN(C(=O)CN(C)Cc2ccc(C(C)(C)C)cc2)CC1	10.1
Cc1cc(N2CCN(S(=O)(=O)c3ccc(Br)cc3)CC2)n2ncnc2n1	-84.8
Cc1ccc(C)c(C(=O)CN2C(=O)c3ccccc3C2=O)c1	13.1
O=C(CCc1nc2ccccc2n1-c1ccccc1)NCCO	7.34
COC(=O)c1sc(=S)n(Cc2ccccc2)c1C	12
Br.O=C(N/N=C/c1sc(N2CCOCC2)nc1-c1ccccc1)c1cccc(S(=O)(=O)N2CCOCC2)c1	7.08
CC(C)N1C(=O)c2ccccc2C1C(=O)NCCc1ccccc1 (stereo not drawn)	10.6
CC(C)NC(=O)CSc1nnc2sc3ccccc3n12	-7.72
COc1ccc(CCN(C)Cc2cccc3ccccc23)cc1OC	-43.6
COc1ccc(C2NC(=S)NC(C)=C2C(=O)Nc2ccccn2)cc1OC (stereo not drawn)	17.1
CCN(CC)c1nc(-c2ccccc2)nc2c1sc(=S)n2CC	5.95
Cc1cc(NC(=O)CN2CCN(S(=O)(=O)c3ccc4ccccc4c3)CC2)no1	3.85
CN(Cc1ccccc1)c1nc(N)nc(Cl)c1C=O	5.4
CCCCC1CCC(C(=O)OCC(=O)Nc2ccc(S(N)(=O)=O)cc2)CC1 (stereo not drawn)	8.33
Nc1cc(-c2ccco2)no1	-0.355
CCN(CC)CCOC(=O)/C=C/c1ccccc1OC.Cl	9.1
O=C(CSC(=S)N1CCCC1)c1ccccc1	0.497
O=[N+]([O-])c1cc(S(=O)(=O)NC2=NCCCCC2)ccc1Cl	16
O=c1[nH]c(=S)n(-c2ccccc2F)c(O)c1C=Nc1ccc(N2CCOCC2)cc1	11.3
COc1ccc(C)cc1S(=O)(=O)NC1CCCCC1C (stereo not drawn)	3.41
